From a collection of fitness landscapes (doi:10.1126/science.1257360) come the findings set out here.

The other results are listed elsewhere or left out.

To fix the notation:
B1: PhoQ; a variant is named by its letters at X, in order, P23837 (parent)
chain: MKKLLRLFFPLSLRVRFLLATAAVVLVLSLAYGMVALIGYSVSFDKTTFRLLRGESNLFYTLAKWENNKLHVELPENIDKQSPTMTLIYDENGQLLWAQRDVPWLMKMIQPDWLKSNGFHEIEADVNDTSLLLSGDHSIQQQLQEVREDDDDAEMTHSVAVNVYPATSRMPKLTIVVVDTIPVELKSSYMVWSWFIYVLSANLLLVIPLLWVAAWWSLRPIEALAKEVRELEEHNRELLNPATTRELTSLVRNLNRLLKSERERYDKYRTTLTDLTHSLKTPLXXLQXXLRSLRSEKMSVSDAEPVMLEQISRISQQIGYYLHRASMRGGTLLSRELHPVAPLLDNLTSALNKVYQRKGVNISLDISPEISFVGEQNDFVEVMGNVLDNACKYCLEFVEISARQTDEHLYIVVEDDGPGIPLSKREVIFDRGQRVDTLRPGQGVGLAVAREITEQYEGKIVAGESMLGGARMEVIFGRQHSAPKDE

Variants of B1 are the subject of the test. The test can be described thus: enrichment ratio after two sorts for PhoP signalling (ratio (wild type AVST 3.29)); higher = more functional. As to conditions: with PhoP (E. coli).
As for FLDC, the enrichment ratio was at most 0.25. ACMR: the enrichment ratio was 1.61. Take PVTN: the enrichment ratio was at most 0.25. Consider GFER, for which the enrichment ratio is at most 0.25.

As to MQVI, the enrichment ratio is at most 0.25. The figure for HGAH is at most 0.25; for FQMY it is at most 0.25.

In the case of PIEN, the enrichment ratio was at most 0.25.

For the variant QFRT, the enrichment ratio is at most 0.25. Take HDFA: the enrichment ratio was at most 0.25. Take IQTQ: the enrichment ratio was at most 0.25.

Regarding RQMG, the enrichment ratio is at most 0.25. For FNTT, the enrichment ratio was at most 0.25. Regarding TMLM, the enrichment ratio is 6.66. Regarding APKM, the enrichment ratio was at most 0.25.

For SSQS, the enrichment ratio is at most 0.25.

On to PKQQ, for which the enrichment ratio was at most 0.25. As for INVP, the enrichment ratio was at most 0.25. Under MCFG stands 3.32; under YELM, 13.8; under EFRN, at most 0.25. In the case of PTCY, the enrichment ratio was at most 0.25. Under TGYS stands 1.45; under LTFR, at most 0.25. Under WRGS stands at most 0.25. On to CLLW, for which the enrichment ratio was at most 0.25. The figure for MEYI is 11; for AGHH it is at most 0.25. Regarding SLGK, the enrichment ratio is at most 0.25. Regarding TFSA, the enrichment ratio came out at 8.36. On to NPFA, for which the enrichment ratio was at most 0.25.

With FNHD, the enrichment ratio is at most 0.25. The figure for AKKA is at most 0.25. Take FVHC: the enrichment ratio is at most 0.25. The figure for ALCQ is 13.8; for IAFT it is at most 0.25; for DHNI it is at most 0.25. With NNDL, the enrichment ratio is at most 0.25. For PQFT, the enrichment ratio was at most 0.25. Turning to FIVM, the enrichment ratio is 2.15. On to FKER, for which the enrichment ratio was at most 0.25. On to TSEK, for which the enrichment ratio was at most 0.25.

For the variant EDAF, the enrichment ratio was at most 0.25. For the variant RELM, the enrichment ratio was at most 0.25. Turning to NMPC, the enrichment ratio is at most 0.25. Regarding RGQE, the enrichment ratio is at most 0.25. As to IDKL, the enrichment ratio is at most 0.25.

On to RSMW, for which the enrichment ratio was at most 0.25. GERI: the enrichment ratio was at most 0.25. For the variant ELGK, the enrichment ratio is at most 0.25. As to LVND, the enrichment ratio is at most 0.25. For the variant AISQ, the enrichment ratio amounted to 15.6. ENQP: the enrichment ratio is at most 0.25. As for NTTV, the enrichment ratio was at most 0.25. Under MSIF stands at most 0.25. As for FFDG, the enrichment ratio was at most 0.25. In the case of RYTI, the enrichment ratio was at most 0.25. Take SNFE: the enrichment ratio was at most 0.25. Under VTKV stands at most 0.25. Consider EPVD, for which the enrichment ratio is at most 0.25. PMMR: the enrichment ratio is at most 0.25. Regarding AHIS, the enrichment ratio was at most 0.25. With SYLF, the enrichment ratio is at most 0.25. Consider LLFE, for which the enrichment ratio is at most 0.25. KARV: the enrichment ratio is at most 0.25. In the case of HYRM, the enrichment ratio is at most 0.25.

YQIW: the enrichment ratio is at most 0.25. The figure for WHHC is at most 0.25; for YLWK it is at most 0.25.

Turning to MDVY, the enrichment ratio was at most 0.25. Consider KYPG, for which the enrichment ratio is at most 0.25. DTNH: the enrichment ratio is at most 0.25. As for GIGA, the enrichment ratio was at most 0.25. For TMPI, the enrichment ratio is at most 0.25. The figure for AEDA is at most 0.25; for MWWH it is at most 0.25. As for PWYS, the enrichment ratio was at most 0.25. Turning to AKVW, the enrichment ratio was at most 0.25. In the case of RATI, the enrichment ratio was at most 0.25. With DNHY, the enrichment ratio is at most 0.25. As to WAEK, the enrichment ratio is at most 0.25. With VNRK, the enrichment ratio was at most 0.25. Consider QYIL, for which the enrichment ratio is at most 0.25. For MSQM, the enrichment ratio was at most 0.25.

In the case of VWPT, the enrichment ratio was at most 0.25. With RDQD, the enrichment ratio is at most 0.25. Under TVAD stands at most 0.25; under YDSQ, at most 0.25; under LAGC, at most 0.25. KDRL: the enrichment ratio is at most 0.25. In the case of TDWE, the enrichment ratio was at most 0.25. For the variant RFGD, the enrichment ratio was at most 0.25. For NGVP, the enrichment ratio worked out at 0.475.

In the case of DWIL, the enrichment ratio is at most 0.25. As for IPPA, the enrichment ratio is at most 0.25.

In the case of ISGY, the enrichment ratio was at most 0.25.

DDRV: the enrichment ratio is at most 0.25. Under DATH stands at most 0.25.

Turning to PCDP, the enrichment ratio is at most 0.25.

Regarding LFAD, the enrichment ratio was at most 0.25. Consider LIFA, for which the enrichment ratio was at most 0.25.

Turning to SPGR, the enrichment ratio was at most 0.25.

As to FPVL, the enrichment ratio was at most 0.25. Regarding YTAY, the enrichment ratio was at most 0.25.

On to LEQV, for which the enrichment ratio is at most 0.25. Take LWLA: the enrichment ratio is at most 0.25. For the variant GLWP, the enrichment ratio is at most 0.25. Regarding GYRR, the enrichment ratio was at most 0.25. With LYVR, the enrichment ratio is at most 0.25. Consider CLSY, for which the enrichment ratio is at most 0.25.

On to IQMK, for which the enrichment ratio was at most 0.25. Regarding RMME, the enrichment ratio was at most 0.25.

For the variant PNYE, the enrichment ratio was at most 0.25. AQMN: the enrichment ratio is 38.4. As for RADS, the enrichment ratio was at most 0.25. As for DQHH, the enrichment ratio was at most 0.25.

Take LFCQ: the enrichment ratio is at most 0.25. For the variant ISHL, the enrichment ratio was at most 0.25. Take YNIH: the enrichment ratio was at most 0.25. Consider SLIA, for which the enrichment ratio was at most 0.25. On to TSES, for which the enrichment ratio was determined as 2.55. With TREG, the enrichment ratio is at most 0.25. For HLAA, the enrichment ratio was at most 0.25. Consider FFVD, for which the enrichment ratio is at most 0.25. Take TNDI: the enrichment ratio was at most 0.25.

Turning to SDRS, the enrichment ratio was at most 0.25. Consider FPAP, for which the enrichment ratio is at most 0.25. Take QHEG: the enrichment ratio was at most 0.25. For FMEC, the enrichment ratio is at most 0.25. Turning to NAVR, the enrichment ratio is at most 0.25.

Turning to WLLG, the enrichment ratio is at most 0.25. Turning to PPCI, the enrichment ratio is at most 0.25. For NHHK, the enrichment ratio is at most 0.25. Regarding ESSF, the enrichment ratio is at most 0.25. The figure for PNQA is at most 0.25.

Turning to NHHI, the enrichment ratio was at most 0.25. For the variant QEDV, the enrichment ratio was 2.52. Under MTSS stands at most 0.25.

Turning to QCKG, the enrichment ratio was at most 0.25. Under NSKS stands at most 0.25; under VCPR, at most 0.25. As to THTN, the enrichment ratio was determined as 4.21. Consider GFYF, for which the enrichment ratio is at most 0.25.

For the variant EGPP, the enrichment ratio was at most 0.25. Consider HEDG, for which the enrichment ratio was at most 0.25. The figure for FGLT is 9.94. Under EQLH stands at most 0.25; under SQLS, 7.34; under SFVP, at most 0.25.

As for HDPH, the enrichment ratio was at most 0.25.

As for IGQP, the enrichment ratio is at most 0.25.

For MFMH, the enrichment ratio was at most 0.25.

Turning to YLHA, the enrichment ratio is at most 0.25.
